In all, about 33,000 sequences were measured (“E-score (-0.5 to 0.5)”: median about -0.012, highest 2% from about 0.29 on). Some of the results follow.
target: T1, Ybr033w (UniProt P38073); assay: PBM E-score (8-mer binding enrichment) (E-score (-0.5 to 0.5)); higher = stronger / more preferred TF binding; most listed sequences are background and not binding sites; conditions: protein concentration: 200 nM; construct: GST-full length
T1 sequence: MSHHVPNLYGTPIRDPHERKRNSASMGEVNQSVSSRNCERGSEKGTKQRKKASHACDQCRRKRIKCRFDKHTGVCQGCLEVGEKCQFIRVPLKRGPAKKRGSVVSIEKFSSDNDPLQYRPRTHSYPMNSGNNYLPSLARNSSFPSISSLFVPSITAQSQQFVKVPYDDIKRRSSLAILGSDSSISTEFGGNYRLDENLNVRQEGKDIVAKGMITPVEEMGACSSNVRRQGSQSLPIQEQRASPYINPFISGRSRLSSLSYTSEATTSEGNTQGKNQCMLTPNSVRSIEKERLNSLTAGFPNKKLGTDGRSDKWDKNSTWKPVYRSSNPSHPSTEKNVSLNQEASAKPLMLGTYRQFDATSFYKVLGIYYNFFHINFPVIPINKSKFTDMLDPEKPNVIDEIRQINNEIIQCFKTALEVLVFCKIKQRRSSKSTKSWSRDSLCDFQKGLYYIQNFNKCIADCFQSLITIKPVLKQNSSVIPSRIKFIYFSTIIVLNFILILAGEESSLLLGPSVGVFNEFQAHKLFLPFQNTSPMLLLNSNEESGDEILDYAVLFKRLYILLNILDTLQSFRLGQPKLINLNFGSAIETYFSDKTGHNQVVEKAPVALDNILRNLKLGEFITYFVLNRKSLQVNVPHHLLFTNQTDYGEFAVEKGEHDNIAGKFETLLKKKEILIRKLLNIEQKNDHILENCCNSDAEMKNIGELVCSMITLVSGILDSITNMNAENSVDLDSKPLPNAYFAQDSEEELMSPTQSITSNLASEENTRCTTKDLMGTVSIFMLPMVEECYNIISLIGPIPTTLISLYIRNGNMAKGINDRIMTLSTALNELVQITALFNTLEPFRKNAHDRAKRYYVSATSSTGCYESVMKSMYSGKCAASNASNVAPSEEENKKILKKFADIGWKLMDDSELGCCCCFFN
How it was run: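 For each ungapped eight-base word taken together with its reverse complement, the Universal PBM Analysis Suite assigned an E-score. Binding data came from GST-tagged yeast transcription factors, applied at about 100-200 nM, on universal all-10-mer Agilent arrays made double-stranded by primer extension. Fluorescent anti-GST marked bound protein, and scans were normalised with masliner.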

Sequence | PBM E-score
TATGTTAA | 0.238
CGCTCTAA | -0.0524
GACGAGAC | -0.0005
AAAAGACT | -0.106
AATGTCAT | 0.153
TACTTGGA | 0.167
ATACAGCA | 0.146
CAGCCGGG | -0.173
GTGACGGA | -0.0485
ACTAGCGG | -0.0103
GGTGAAGA | -0.0754
ATCGGACG | -0.0124
CAAGGAAA | 0.162
TAGAGTCA | -0.252
GTTTTCCA | 0.215
ATGCTCCC | -0.164
CATCGTCG | -0.242
ACTGCACA | 0.0403
ATGCCCAT | -0.171
CGAAGACC | -0.00496
CTTTGAGC | -0.168
ATCCCCGG | -0.169
CTCTTAAG | -0.0228
AGTCGCCA | -0.275
ATCCTGCG | -0.129

Sequence | PBM E-score
CATTATTC | 0.213
TCCTTCCA | -0.0913
GGGAAGAA | 0.256
ATAGGTCG | -0.11
ACACAAGG | -0.046
AGACAGCT | -0.131
AGTTAATA | 0.336
GCACCCGC | -0.169
CTCACCGC | -0.024
CGAATCGC | -0.0798
AGGGTGAT | -0.055
CGCAAAAC | 0.0887
ACTGCACT | 0.0301
CACGAATG | 0.0892
CATGACCG | -0.335
CTTGAGAC | -0.126
ATAGGTAA | 0.132
AGACCTCT | -0.13
ACGCCTTC | -0.228
CTCATAAC | 0.0384
ATGACAAT | 0.293
ACCGGCGT | -0.0665
ATGAATGC | 0.045
TCGCTACA | -0.212
CCACCAAC | -0.0505

Sequence | PBM E-score
TAAAGACA | 0.0462
GAATGCTC | 0.0722
CGCCTCTC | -0.423
CAGGCTGA | -0.237
ACGAGCTG | 0.00104
CCATAGGC | -0.298
CTTCTGAC | 0.0292
CAAGCGCA | 0.175
ATCACAGG | -0.0736
ACATGAAC | -0.00232
TGCTCCAA | -0.0168
GTATTCAC | 0.157
TCTCGTAA | 0.0727
ATGCTACG | 0.0843
AAACGTAC | 0.21
CCCAGTCG | -0.28
GTTCTGCA | -0.173
ATACGTAG | 0.134
GAGCATAA | 0.101
AAATTTAA | 0.29
AATTTCTG | 0.128
ACTCAGCC | -0.224
CCGTGCTA | -0.234
ATGATACA | 0.185
GGCGTAAC | -0.184

Sequence | PBM E-score
AAATACTT | 0.34
ACATACGC | 0.00485
TAACTAGA | 0.262
AATAATGG | 0.162
TGTAAGAA | 0.211
CAATCACG | 0.122
ATAAACAG | 0.0706
GGTAGATA | 0.148
CGGTTATC | -0.136
ACTGAATA | 0.153
AACCCGCT | -0.139
CTTAGGTA | 0.0299
CGAGGTAA | -0.0143
TCCGGCAA | 0.124
AGAGACCA | -0.0563
AACGACTA | -0.0272
GCCCCCCA | -0.3
ATGCTGCA | 0.0833
ACTTTTCT | 0.104
GCTACAGC | -0.0479
CACACAAC | 0.0707
ACTGCCGA | -0.0418
AAACAGTT | 0.117
GATTGGCC | -0.124
ACGCACTC | -0.107

Sequence | PBM E-score
AAACTTGA | 0.175
AGTAGCAT | 0.159
AAGACTCA | -0.108
AGTTGCAA | -0.00435
CTCCAATC | 0.147
ATATTGTC | 0.215
CAGACACG | -0.15
GCCCAACC | -0.022
AACGTGTG | -0.0995
ATGCTAAG | -0.119
AAGAGCCT | -0.0721
ACGCTCAC | -0.0506
GTCAGATA | 0.119
GATACAGC | -0.00182
CTGATTGC | -0.0487
TCTTAAGA | -0.0768
CTCGGAGA | -0.0768
AAATCGGG | 0.0855
ATATCTAA | 0.213
GTCCTAGA | -0.191
AAACCATG | 0.0309
TGACGTCA | 0.205
GAACTACC | 0.0466
ATCATAGC | 0.149
AGAACAGC | 0.0617

Sequence | PBM E-score
CTAATCTA | 0.107
CTGCTGAC | -0.101
GAACACGC | -0.00223
CTATGGGA | -0.129
AAGTGCCC | -0.341
ACCTTTCA | -0.0108
ACGCGGCG | -0.168
GACGATCC | 0.023
AGATCTAG | -0.112
AGCATACT | -0.004
ATTTGATA | 0.24
CTCGTACC | -0.0303
CCATACTA | 0.285
GCCTCGAC | -0.265
ACGTAAGG | -0.0499
AGTGGGAG | -0.148
AGTGTCGC | 0.0408
ACAACCTG | -0.0436
ATAGATAT | 0.197
ATACACCA | 0.158
CGACTAAG | -0.0131
GGCACACC | -0.285
ATTTTCCC | 0.386
GTATTTAA | 0.267
TCTACGAA | -0.105

Sequence | PBM E-score
TCTGCAGA | -0.188
AGGGCCGA | -0.064
ACGCGGCA | -0.188
CGGTAGCA | -0.112
CAGGATGC | -0.00818
GAAAAGAA | 0.135
AGCTGTGC | -0.0796
AAGCATGC | -0.0259
AGGGCTGA | -0.122
AGGTAGCG | 0.0165
TACACATA | 0.0729
GAGGATAA | 0.0436
ACTGAACA | 0.129
ACGCCGGC | -0.0959
GCATATGC | -0.016
AGCAAGAG | -0.161
AAGTAAAT | 0.228
ATGGACAC | 0.0613
CTGCTTTC | 0.129
AGAATGTA | 0.12
GGTTGCAA | 0.0604
CCCGAACA | -0.116

Source: the supplement of paper PMC3334620
